Data from article PMC4336329 (PLoS ONE, 2015).
The campaign covered roughly 310,000 compounds. About 2,200 (0.71%) showed an effect of 50% or more. The effect is printed as a negative number. The list shows a part of the results.

What follows are molecules tested against human ether-à-go-go-related gene (hERG) potassium channel (human, UniProt Q12809) (assay: primary screen, population patch clamp on CHO cells stably expressing hERG).
Sequence of human ether-à-go-go-related gene (hERG) potassium channel (Q12809 whole entry, looked up): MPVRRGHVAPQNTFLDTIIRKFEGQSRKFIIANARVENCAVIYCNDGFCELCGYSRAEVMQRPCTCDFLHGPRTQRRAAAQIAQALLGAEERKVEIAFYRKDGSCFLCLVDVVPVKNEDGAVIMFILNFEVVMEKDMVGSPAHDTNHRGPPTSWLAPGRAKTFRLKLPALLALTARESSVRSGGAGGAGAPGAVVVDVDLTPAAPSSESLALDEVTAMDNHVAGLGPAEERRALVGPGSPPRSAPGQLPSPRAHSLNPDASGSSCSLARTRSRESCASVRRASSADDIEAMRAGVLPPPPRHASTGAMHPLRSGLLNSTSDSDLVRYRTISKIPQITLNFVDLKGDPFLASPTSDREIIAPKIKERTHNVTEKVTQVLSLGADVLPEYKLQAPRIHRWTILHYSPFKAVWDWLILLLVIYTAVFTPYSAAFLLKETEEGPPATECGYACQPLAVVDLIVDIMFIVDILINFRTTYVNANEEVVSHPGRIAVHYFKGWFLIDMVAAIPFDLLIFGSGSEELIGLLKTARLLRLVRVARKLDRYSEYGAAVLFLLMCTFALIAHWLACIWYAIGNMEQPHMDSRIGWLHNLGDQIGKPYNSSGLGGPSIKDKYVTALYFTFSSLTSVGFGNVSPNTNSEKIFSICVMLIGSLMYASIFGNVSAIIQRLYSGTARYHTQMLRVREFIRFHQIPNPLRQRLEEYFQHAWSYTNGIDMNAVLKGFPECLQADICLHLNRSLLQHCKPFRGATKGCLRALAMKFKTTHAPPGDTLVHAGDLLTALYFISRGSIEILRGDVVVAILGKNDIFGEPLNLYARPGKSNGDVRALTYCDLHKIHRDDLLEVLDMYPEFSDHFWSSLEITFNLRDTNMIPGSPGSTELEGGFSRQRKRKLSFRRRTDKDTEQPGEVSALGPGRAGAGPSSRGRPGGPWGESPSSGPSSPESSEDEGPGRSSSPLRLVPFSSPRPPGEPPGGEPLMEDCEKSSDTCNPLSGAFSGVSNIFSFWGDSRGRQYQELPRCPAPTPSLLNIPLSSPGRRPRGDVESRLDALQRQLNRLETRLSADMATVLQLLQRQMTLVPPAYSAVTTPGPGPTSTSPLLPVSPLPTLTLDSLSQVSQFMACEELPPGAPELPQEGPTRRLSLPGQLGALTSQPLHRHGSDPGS

SMILES | hERG current change (%, negative = inhibition) at 1uM
CC(C)CN1CCC(=O)N([C@H](CO)c2ccccc2)CC1 | 12.6%
N/C(=N\OC(=O)COc1ccc2ccccc2c1)c1cccnc1 | 14%
CCC(=O)N1CCc2nc(-c3ccccc3)sc2C1 | 7.67%
CCc1ccc2[nH]c(=O)c(CN(CCN(CC)CC)C(=O)NC3CCCCC3)cc2c1 | -51.5%
Cc1ccc(C)c(NS(=O)(=O)c2csc(C(N)=O)c2)c1 | 13.4%
CC(C)n1nc(C(=O)NC2CCCCCC2)c2ccccc2c1=O | 8.98%
Br.CCCCCCCCCn1c2c(c(=N)c3c1CCC3)CCC2 | -65.5%
CCC1CCCCN1C(=O)CSc1nc(N)c(NC(=O)c2ccco2)c(=O)[nH]1 (stereo not drawn) | 14.5%
Cc1ccccc1NC(=O)Cn1c(C)nc2ccc(N)cc2c1=O | 7.97%
N#Cc1cc2c(nc1SCC(=O)Nc1sc3c(c1C#N)CCC3)CCCCCC2 | 9.58%
N#CCSc1nc(-c2ccccc2)nc2ccc(F)cc12 | 13%
Cc1csc(C(=O)NCC(=O)NNC(=O)c2cccc(Cl)c2)c1 | 9.31%
COc1ccc(C(=O)NNC(=O)CSc2nc3c([nH]2)c(=O)n(C)c(=O)n3C)cc1 | 26%
CCCCCOC(=O)Cc1c(O)c2ccccc2n(C)c1=O | -1.9%
Cn1c(=O)n(-c2cccc(Cl)c2)c(=O)c2c3c(sc21)COC(C)(C)C3 | 24.7%
CCCC(=O)NCc1ccccc1Cl | 5.01%
CCOc1cc(CN2CCN(c3ccc(C(C)=O)cc3)CC2)ccc1OC | -18.3%
COc1cccc(N=Nc2c(=O)[nH]n3c(=O)c4c([nH]c23)CCC4)c1 | 16.5%
O=C(COC(=O)C1COc2ccccc2O1)NC1CCS(=O)(=O)C1 (stereo not drawn) | 10.4%
CC(c1ccc(F)cc1)n1cc(C(=O)NCCN(C)C)nn1 (stereo not drawn) | 24.1%
CCCc1ncc(C(O)(c2ccccc2)c2ccccc2)n1C.Cl | 11.5%
CC(C)OC1(c2ccccc2)OC(=O)c2ccccc21 (stereo not drawn) | -3.42%
COC(=O)N1CC(C)N(C(=O)OC)CC1C (stereo not drawn) | 9.79%

SMILES | hERG current change (%, negative = inhibition) at 1uM
COc1cc(OC)cc(C(=O)OCC(=O)NCc2ccc3c(c2)OCO3)c1 | 14.3%
CC(=O)Nc1ccc(S(=O)(=O)NC2CC3CCC2C3)cc1 (stereo not drawn) | 9.59%
Cc1ccc(CCNC(=O)C2CCC(CNc3c(N4CCC(C)CC4)c(=O)c3=O)CC2)cc1 (stereo not drawn) | 1.16%
COc1ccc(-n2nc(C(=O)NCC(=O)Nc3ccc(F)cc3)c3ccccc3c2=O)cc1 | 18.4%
COC(=O)c1sccc1Oc1c(Cl)cccc1[N+](=O)[O-] | 7.82%
Cc1ccc(N2CC(C(=O)Nc3ccccc3C(=O)NC3CCCCC3)CC2=O)cc1 (stereo not drawn) | 5.42%
Cc1ccc(NC(=O)COC(=O)CN2C(=O)C3CCCCC3C2=O)cc1S(=O)(=O)N1CCOCC1 (stereo not drawn) | 8.07%
CCCn1c(SCCN2C(=O)c3ccccc3C2=O)n[nH]c1=O | 11.3%
O=S(=O)(NCc1ccco1)c1ccc(Cl)nc1 | 7.24%
COc1cccc(-c2nc(-c3ccccc3)[nH]c(=O)c2C#N)c1 | 12.3%
COC(=O)c1csc2c(C(F)(F)F)cc(N3CCN(C(=O)Nc4ccccc4)CC3)nc12 | 15%
CCCOC(=O)Cn1cnc2scc(-c3ccc(OC)cc3)c2c1=O | 9.82%
CCCCc1cc(-c2n[nH]c(=S)o2)c2ccccc2n1 | 12.7%
Cc1c(C(=O)N2CCN(c3cccc(Cl)c3)CC2)cccc1[N+](=O)[O-] | -2.11%
Cc1cccc(NC(=O)c2ccc(Cl)nc2)n1 | 11.4%
CC(=O)c1ccccc1C(=O)N1CCCC(CNC(=O)c2ccccc2Cl)C1 (stereo not drawn) | 9.7%
O=C1C(C=NCc2ccco2)=C(O)c2ccccc21 | 4.45%
Cc1ccc(-n2nc3c(=O)n(CCCC(=O)NCc4ccc(F)cc4)nc(C)c3c2C)cc1 | -3.45%
Cc1nc(=S)c2ccccc2[nH]1 | 6.91%
CCOCCCNC(=S)N(CCN(CC)CC)Cc1cc2cc3c(cc2[nH]c1=O)OCCO3 | 11%
CCOC(=O)C1Nc2ccc(C)cc2C2C=CCC12 (stereo not drawn) | 16.8%
COC(=O)c1c(NC(=O)CS(=O)(=O)c2ccccc2)sc(C)c1C | 8.57%
